What follows are compounds tested against full-length recombinant NH-terminal GST tagged human PDE1b enzyme (Homo sapiens, UniProt Q01064) (assay: PDE1b inhibitory assay (IMAP TR-FRET)). Settings: negative log of half-maximal molar inhibitory concentration; FAM-cAMP 200 nM; reported as bins; read-out: PDE1b (pEC50) (converted).
Format: biochemical
With C[C@@H]1CN(Cc2cnc3c(c2)c2ncnn2c(=O)n3Cc2ccc(Cl)c(Cl)c2)C[C@H](C)O1 [Example 111, 6-(3,4-Dichlorobenzyl)-9-(((2S,6R)-2,6-dimethylmorpholino)methyl)pyrido[3,2-e][1,2,4]triazolo[1,5-c]pyrimidin-5(6H)-one] the EC50 was 0.1 to 1 µM. With Cc1ccc(Cn2c(=O)n3ncnc3c3cc(CN4C[C@@H](C)O[C@@H](C)C4)cnc32)c(F)c1 [Example 138, 9-(((2R,6S)-2,6-Dimethylmorpholino)methyl)-6-(2-fluoro-4-methylbenzyl)pyrido[3,2-e][1,2,4]triazolo[1,5-c]pyrimidin-5(6H)-one] the EC50 was 0.1 to 1 µM. With O=c1n(Cc2ccc(Cl)cc2)c2ncc(CN3CCOCC3)cc2c2ncnn12 [Example 24, 6-(4-Chlorobenzyl)-9-(morpholinomethyl)pyrido[3,2-e][1,2,4]triazolo[1,5-c]pyrimidin-5(6H)-one] the EC50 was 0.1 to 1 µM. Work on COc1ccc(Cn2c(=O)n3ncnc3c3cc(CN4CCOCC4C)cnc32)cc1 (stereo not shown) [Example 46, 6-(4-Methoxybenzyl)-9-((3-methylmorpholino)methyl)pyrido[3,2-e][1,2,4]triazolo[1,5-c]pyrimidin-5(6H)-one] yielded an EC50 of 0.1 to 1 µM. In the case of Cc1c(F)c(F)c(Cn2c(=O)n3ncnc3c3cc(CN4C[C@@H](C)O[C@@H](C)C4)cnc32)c(F)c1F [Example 160, 9-(((2S,6R)-2,6-Dimethylmorpholino)methyl)-6-(2,3,5,6-tetrafluoro-4-methylbenzyl)pyrido[3,2-e][1,2,4]triazolo[1,5-c]pyrimidin-5(6H)-one], the EC50 is reported as 0.1 to 1 µM. Work on COc1ccc(Cn2c(=O)n3ncnc3c3cc(N(C)CCCN(C)C)cnc32)cc1 [Example 18, 9-((3-(Dimethylamino)propyl)(methyl)amino)-6-(4-methoxybenzyl)pyrido[3,2-e][1,2,4]triazolo[1,5-c]pyrimidin-5(6H)-one] yielded an EC50 of 1 to 10 µM. With COc1ccc(Cn2c(=O)n3ncnc3c3cc(C(F)CN4C[C@@H](C)O[C@@H](C)C4)cnc32)cc1 (stereo partly drawn) [Example 86, 9-(2-((2S,6R)-2,6-Dimethylmorpholino)-1-fluoroethyl)-6-(4-methoxybenzyl)pyrido[3,2-e][1,2,4]triazolo[1,5-c]pyrimidin-5(6H)-one] the EC50 was < 0.1 µM. C[C@@H]1CN(Cc2cnc3c(c2)c2ncnn2c(=O)n3Cc2cc(F)c(F)cc2Cl)C[C@H](C)O1 [Example 139] was tested, and the EC50 was 1 to 10 µM. COc1ccc(Cn2c(=O)n3ncnc3c3cc(CN4CCN(S(C)(=O)=O)CC4)cnc32)cc1 [Example 68, 6-(4-Methoxybenzyl)-9-((4-(methylsulfonyl)piperazin-1-yl)methyl)pyrido[3,2-e][1,2,4]triazolo[1,5-c]pyrimidin-5(6H)-one] showed an EC50 of 0.1 to 1 µM. In the case of COc1ccc(Cn2c(=O)n3ncnc3c3cc(CN4CCOC(C)C4)cnc32)cc1 (stereo not shown) [Example 45, 6-(4-Methoxybenzyl)-9-((2-methylmorpholino)methyl)pyrido[3,2-e][1,2,4]triazolo[1,5-c]pyrimidin-5(6H)-one], the EC50 is reported as < 0.1 µM. C=Cc1cnc2c(c1)c1ncnn1c(=O)n2Cc1ccc(OC)cc1 [Example 30, 6-(4-Methoxybenzyl)-9-vinylpyrido[3,2-e][1,2,4]triazolo[1,5-c]pyrimidin-5(6H)-one] showed an EC50 of 0.1 to 1 µM. In the case of COc1ccc(Cn2c(=O)n3ncnc3c3nc(CN4CCOC(C)C4)cnc32)cc1 (stereo not shown) [Example 163, 6-(4-Methoxybenzyl)-9-((2-methylmorpholino)methyl)-[1,2,4]triazolo[1,5-c]pteridin-5(6H)-one], the EC50 is reported as 0.1 to 1 µM. C[C@@H]1CN(Cc2cnc3c(c2)c2ncnn2c(=O)n3Cc2ccc(C(F)(F)F)cc2)C[C@H](C)O1 [Example 136] showed an EC50 of 1 to 10 µM. In the case of Cc1ccc(Cn2c(=O)n3ncnc3c3cc(CN4C[C@@H](C)O[C@@H](C)C4)cnc32)c(F)c1F [Example 151, 6-(2,3-Difluoro-4-methylbenzyl)-9-(((2R,6S)-2,6-dimethylmorpholino)methyl)pyrido[3,2-e][1,2,4]triazolo[1,5-c]pyrimidin-5(6H)-one], the EC50 is reported as 0.1 to 1 µM. In the case of C[C@@H]1CN(Cc2cnc3c(c2)c2ncnn2c(=O)n3Cc2c(F)cc(Cl)cc2F)C[C@H](C)O1 [Example 147], the EC50 is reported as < 0.1 µM. In the case of COc1cc(F)c(Cn2c(=O)n3ncnc3c3cc(CN4C[C@@H](C)O[C@@H](C)C4)cnc32)c(F)c1 [Example 103, 6-(2,6-Difluoro-4-methoxybenzyl)-9-(((2S,6R)-2,6-dimethylmorpholino)methyl)pyrido[3,2-e][1,2,4]triazolo[1,5-c]pyrimidin-5(6H)-one], the EC50 is reported as < 0.1 µM. With C#Cc1ccc(Cn2c(=O)n3ncnc3c3cc(CN4C[C@@H](C)O[C@@H](C)C4)cnc32)cc1 [Example 128, 9-(((2S,6R)-2,6-Dimethylmorpholino)methyl)-6-(4-ethynylbenzyl)pyrido[3,2-e][1,2,4]triazolo[1,5-c]pyrimidin-5(6H)-one] the EC50 was < 0.1 µM. With COc1ccc(Cn2c(=O)n3ncnc3c3cc(CN4C[C@@H](C)N[C@@H](C)C4)cnc32)cc1 [Example 66, 9-(((3S,5R)-3,5-Dimethylpiperazin-1-yl)methyl)-6-(4-methoxybenzyl)pyrido[3,2-e][1,2,4]triazolo[1,5-c]pyrimidin-5(6H)-one] the EC50 was 1 to 10 µM. C[C@@H]1CN(Cc2cnc3c(c2)c2ncnn2c(=O)n3Cc2ccc(Cl)cc2Cl)C[C@H](C)O1 [Example 142] gave an EC50 of 0.1 to 1 µM. Compound COc1ccc(Cn2c(=O)n3ncnc3c3ncc(CN4CCOCC4)cc32)cc1 [Example 57, 6-(4-Methoxybenzyl)-8-(morpholinomethyl)pyrido[2,3-e][1,2,4]triazolo[1,5-c]pyrimidin-5(6H)-one] has an EC50 of 1 to 10 µM. Compound C[C@@H]1CN(Cc2cnc3c(c2)c2ncnn2c(=O)n3Cc2cc(F)cc(Cl)c2)C[C@H](C)O1 [Example 115] has an EC50 of 1 to 10 µM. In the case of COc1ccc(Cn2c(=O)n3ncnc3c3cc(N[C@H]4CCCC[C@@H]4N)cnc32)cc1 [Example 10, 9-(((1S,2S)-2-Aminocyclohexyl)amino)-6-(4-methoxybenzyl)pyrido[3,2-e][1,2,4]triazolo[1,5-c]pyrimidin-5(6H)-one], the EC50 is reported as 1 to 10 µM. In the case of C[C@@H]1CN(Cc2cnc3c(c2)c2ncnn2c(=O)n3Cc2cc(F)ccc2F)C[C@H](C)O1 [Example 134], the EC50 is reported as 0.1 to 1 µM. COc1ccc(Cn2c(=O)n3ncnc3c3cc(C(C)=O)cnc32)cc1 [Example 81, 9-Acetyl-6-(4-methoxybenzyl)pyrido[3,2-e][1,2,4]triazolo[1,5-c]pyrimidin-5(6H)-one] was tested, and the EC50 was 0.1 to 1 µM. In the case of C[C@@H]1CN(Cc2cnc3c(c2)c2ncnn2c(=O)n3Cc2ccc(Cl)c(F)c2)C[C@H](C)O1 [Example 114], the EC50 is reported as 0.1 to 1 µM. Work on COc1ccc(Cn2c(=O)n3ncnc3c3cc(CN4CCCOCC4)cnc32)c(F)c1F [Example 167, 9-((1,4-Oxazepan-4-yl)methyl)-6-(2,3-difluoro-4-methoxybenzyl)pyrido[3,2-e][1,2,4]triazolo[1,5-c]pyrimidin-5(6H)-one] yielded an EC50 of 0.1 to 1 µM. Compound C[C@@H]1CN(Cc2cnc3c(c2)c2ncnn2c(=O)n3Cc2ccc(F)cc2)C[C@H](C)O1 [Example 91, 9-(((2S,6R)-2,6-Dimethylmorpholino)methyl)-6-(4-fluorobenzyl)pyrido[3,2-e][1,2,4]triazolo[1,5-c]pyrimidin-5(6H)-one] has an EC50 of 0.1 to 1 µM. Compound COc1ccc(Cn2c(=O)n3ncnc3c3cc(-n4nc(C)ccc4=O)cnc32)cc1 [Example 8, 6-(4-Methoxybenzyl)-9-(3-methyl-6-oxopyridazin-1(6H)-yl)pyrido[3,2-e][1,2,4]triazolo[1,5-c]pyrimidin-5(6H)-one] has an EC50 of 0.1 to 1 µM.
